The chains are these.
T1: UNK ZnF1-3 (human, UniProt Q9C0B0 31-174)
T1 sequence: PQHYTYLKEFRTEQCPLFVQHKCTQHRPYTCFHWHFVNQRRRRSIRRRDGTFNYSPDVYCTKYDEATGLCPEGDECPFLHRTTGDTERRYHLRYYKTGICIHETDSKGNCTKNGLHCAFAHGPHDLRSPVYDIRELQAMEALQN

B1: chr9:95013113:95013114:-_ENSG00000196305_ENST00000443024|hu_hu|hu_hu_hu_mus_False|18_78 (ssRNA)
RNA: GGGAGUUCUACAGUCCGACGAUCCUCAGUCAGAAAGGGCGUGUAAGGGGCCAUCAGUCUGCAAAGAGAAAGCAGGACACUGAACAGUGUCUCCAGAGCCAUGACACAGUCUUCCACCCCAUUUUCACCCUUUAACCUCCUCCUCAACAGAGGAUUGAGCAUCA
B2: chr2:53077437:53077438:+_ENSMUSG00000026960_ENSMUST00000028336|mus_hu|FALSE|FALSE (ssRNA)
RNA: GGGAGUUCUACAGUCCGACGAUCACAUAGGGGAAAAAUUAAGGCUUAAUUACUUAGAAAACAAAAUAUCACAAUUACAGGAGCACAUUUAAUUACAAAAAUUAUAAAAUUAUAUUAACUAUAUGUAGUUUUUAAUAUCUAGUACAACAGAGGAUUGAGCAUCA
B3: chr7:56126124:56126125:+_ENSG00000146731_ENST00000540286|hu_mus|motif|central (ssRNA)
RNA: GGGAGUUCUACAGUCCGACGAUCUUGAUUAAUAACGACAAAUCCUUUAUCUGAGUCACCACAGACUUUCUUUUUCAGCUCGGUGAUUUUUUUAACUCUAUCUUCAAUGAAUUUUCUUUCAGCCUUUACUAGUUUUUCUCUCUCCAACAGAGGAUUGAGCAUCA
B4: 6213919_6217037_498_CDS_ENSMUSG00000020456_ENSMUST00000003461|mouse|control|control (ssRNA)
RNA: GGGAGUUCUACAGUCCGACGAUCCAGAUCAGCAUCCAAAAUCCCCAGGGGGUCCAGCUGUGCUACAUGGUGCCCUCGUAUCUGAUAUGCCCUGAUGAGAGACUGCACCGCCAAGUGGUCCUCCACGAGUUUGUCGACGUUAGGCAACAGAGGAUUGAGCAUCA
B5: chr4:128450444:128450445:-_ENSMUSG00000028799_ENSMUST00000106072|mus_mus|motif|central (ssRNA)
RNA: GGGAGUUCUACAGUCCGACGAUCAGGCUGUUAACAGUAUUGGAACAGCAUAUUUACAGGGUAGUAACAUGCGGACAAAAGCGGCAAUACGGAGUAUCAGACGACGCAAGUCAAACAAAGGGGUGGGGGUGGGGGGCUGAGACCCAACAGAGGAUUGAGCAUCA
B6: chr5:128441001:128441002:+_ENSG00000066583_ENST00000173527|hu_mus|FALSE|FALSE (ssRNA)
RNA: GGGAGUUCUACAGUCCGACGAUCACACACGUGCGUUUCUACUCCAAACAACACGACACUCCGGACGCCAGGAAUCUCGGCUAACGCUGCUUCGACUUCAGGUAACACCAUAGAAAACUUGGUCUUUGGAAGAACCAGUUUCACCAACAGAGGAUUGAGCAUCA
B7: chr19:40030274:40030275:-_ENSG00000176396_ENST00000390658|hu_mus|FALSE|FALSE (ssRNA)
RNA: GGGAGUUCUACAGUCCGACGAUCCGGGUAGUUCUCCAGGUAGUGGCGCAGGAACUGCUGGUAAUUGAUGCCCAAGACGCUGAGGGGGUGGCGGAAGCGCAUGUACGGCAUCGCCGCCAGGCCGCCCGCCCUGGACCGGGGCCUCAACAGAGGAUUGAGCAUCA
B8: chr11:69466514:69466515:+_ENSG00000110092_ENST00000227507|hu_hu|FALSE|FALSE (ssRNA)
RNA: GGGAGUUCUACAGUCCGACGAUCAUAUGUUUUUCUACCUAAAACCCUCUUCUACUUUAAAAAUGGUUUGCUGAAUUUUUCUAUGUUUUUAAAAUGUUUUUAUGCUUUUUUUUAAACACGUAAAGGAUGGAACCUAAUCCUCUCCAACAGAGGAUUGAGCAUCA
B9: chr1:109605286:109605287:-_ENSG00000197780_ENST00000461096|hu_mus|hu_hu_hu_mus_True|58_68 (ssRNA)
RNA: GGGAGUUCUACAGUCCGACGAUCAAGUUUCAGAGUAACAUUCAGUAACCUCUUUAAAUGCAAUUAUCCUUACUUUAAACUAAGGGCAAUAAUAAUUUAAUACCGUAAGUGAACUACACACAAAGCCUGAACCGCGAAAAUGGUCAACAGAGGAUUGAGCAUCA
B10: chr10:121347744:121347745:-_ENSG00000151923_ENST00000436547|hu_hu|motif|central (ssRNA)
RNA: GGGAGUUCUACAGUCCGACGAUCCAAUCUGACUGAACAACUGAAGUAUAAGGACUUCUGUCACAUCUCUGGAAAGGUUACCGGCGUAUAGAGUCCGGGGCUGCCCGUCGUCUUCCAUCAUGGUGGGUGCGACGGAGCGAUCCCCAACAGAGGAUUGAGCAUCA
B11: chr1:45981456:45981457:-_ENSG00000117450_ENST00000319248|hu_mus|FALSE|FALSE (ssRNA)
RNA: GGGAGUUCUACAGUCCGACGAUCUCUAUCACUGAAAGCAAUGAUCUCCGUGGGACACACAAAAGUAAAGUCAAGAGGGUAAAAGAAGAACACAACAUAUUUUCCUUUGUAUUCACUUAGGCUGAUAUCUUUGAAUUGUCCAUCCAACAGAGGAUUGAGCAUCA
B12: chr7:36427155:36427156:-_ENSMUSG00000030417_ENSMUST00000118501|mus_mus|motif|central (ssRNA)
RNA: GGGAGUUCUACAGUCCGACGAUCCAAAGUAAACAUUUACAAGGUGGUGACUGUCCUAGACACUGCUCCGGAAGUCUGUCGGAGUGCGUCCUCUUAGUAAUCGGCGUCGUCUUCAUCGGAGUCCAUUACUUUUCUUCUGUUGAACAACAGAGGAUUGAGCAUCA
B13: 94154221_94154341_1649_3pUTR_ENSMUSG00000020863_ENSMUST00000107820|mouse|control|control (ssRNA)
RNA: GGGAGUUCUACAGUCCGACGAUCCUGAGACAAAACAAUGUACCUCAAAAUGUUUUGCAGGACUACACUGUCUUUUCCUUCAGAAGAGGCUUUUGUAUGUCUUCUUACUCGGCUUAGCUCCAUCUUCAUCUGUGCAUACUUACGCAACAGAGGAUUGAGCAUCA
B14: chr13:100200628:100200629:-_ENSMUSG00000052727_ENSMUST00000064762|perfect_dup|motif|central (ssRNA)
RNA: GGGAGUUCUACAGUCCGACGAUCGUCUCCGGGUGUCUUCCCUCCGCUGUCUUUCUCCACACUAGAUGUAGUCAAAUCUCGGUUCAAGGCCAGAUGAUGUUGCAUUGUAUCAAAUAGCAUUGAGGAGCGGAAGCCAUAGGGCUCCAACAGAGGAUUGAGCAUCA

The list shows a part of the results.

The test has as its target T1, UNK ZnF1-3. As to the kind of experiment: nsRBNS (natural sequence RNA bind-n-seq); RBNS binding buffer (assumed for nsRBNS): 25 mM Tris pH 7.5, 150 mM KCl, 3 mM MgCl2, 0.01% Triton X-100, 500 ug/ml BSA, 20 U/ml SUPERase-In, 4 C; UNK is unkempt and MSI1 is Musashi-1; names of the RNAs are library labels; protein concentration not given here; high values mean tight binding.
As for B1, the binding signal was 1.22 enrichment R.

For B2, the binding signal came to 2.29 enrichment R.

With B3, the binding signal came out at 0.421 enrichment R.

On to B4, for which the binding signal was found to be 1.28 enrichment R.

Consider B5, for which the binding signal worked out at 2.2 enrichment R.

B6: the binding signal was found to be 1.17 enrichment R.

For B7, the binding signal was determined as 0.663 enrichment R.

As for B8, the binding signal was 0.812 enrichment R.

Regarding B9, the binding signal turned out to be 0.705 enrichment R.

Regarding B10, the binding signal is 0.738 enrichment R.

Take B11: the binding signal was determined as 1.21 enrichment R.

In turn, B12 yielded a binding signal of 0.575 enrichment R.

As for B13, the binding signal amounted to 0.677 enrichment R.

In turn, B14 came in with a binding signal of 1.1 enrichment R.

Values taken from paper PMC12136788.
